In the GPR68 mutational scans of Howard et al. (2025) one finds cAMP reporter score and surface expression score data, which are given here for 32 variants.

Scores with a large standard error are left out. The source holds two more conditions with little spread; they are left out. Read del as a deletion of the residues named and ins as an insertion between two positions. For part of these data: How much ogerin was present is not stated here.

B1: GPR68, Q15743 (parent)
chain: MGNITADNSSMSCTIDHTIHQTLAPVVYVTVLVVGFPANCLSLYFGYLQIKARNELGVYLCNLTVADLFYICSLPFWLQYVLQHDNWSHGDLSCQVCGILLYENIYISVGFLCCISVDRYLAVAHPFRFHQFRTLKAAVGVSVVIWAKELLTSIYFLMHEEVIEDENQHRVCFEHYPIQAWQRAINYYRFLVGFLFPICLLLASYQGILRAVRRSHGTQKSRKDQIQRLVLSTVVIFLACFLPYHVLLLVRSVWEASCDFAKGVFNAYHFSLLLTSFNCVADPVLYCFVSETTHRDLARLRGACLAFLTCSRTGRAREAYPLGAPEASGKSGAQGEEPELLTKLHPAFQTPNSPGSGGFPTGRLA

In data set [1] the parent is B1. Briefly: cAMP reporter score (Enrich2 score, wild type = 0); higher = more signal; HEK293T, FACS bins.
In data set [2] the parent is B1. Briefly: surface expression score (Enrich2 score, wild type = 0); higher = more signal; HEK293T, FACS bins.

C310L: the cAMP reporter score in data set [1] (pH 5.5) came out at 0.242; in data set [1] (pH 6) it was 1.02; in data set [1] (pH 6, modulator: ogerin), 0.333; in data set [1] (pH 6.5, modulator: ogerin), 0.536. Further, the surface expression score in data set [2] was -0.431.

For C310I, the cAMP reporter score in data set [1] (pH 5.5) is -0.014; in data set [1] (pH 6, modulator: ogerin), 0.29. Also, the surface expression score in data set [2] was -0.019.

In the case of E318_A319del, the cAMP reporter score is 0.612 in data set [1] (pH 5.5); -0.253 in data set [1] (pH 6); 0.173 in data set [1] (pH 6, modulator: ogerin); 0.219 in data set [1] (pH 6.5, modulator: ogerin). Besides, the surface expression score in data set [2] was -0.128.

For S311_R312insGSG, the cAMP reporter score in data set [1] (pH 5.5) was 0.826; in data set [1] (pH 6), 2.07; in data set [1] (pH 6, modulator: ogerin) it was 1.22; in data set [1] (pH 6.5, modulator: ogerin), 2.41. For the same variant, the surface expression score in data set [2] stood at 0.992.

As for C310_S311insGSG, the cAMP reporter score is -0.117 in data set [1] (pH 5.5); -0.016 in data set [1] (pH 6, modulator: ogerin); 0.394 in data set [1] (pH 6.5, modulator: ogerin). For the same variant, the surface expression score in data set [2] amounted to 0.284.

For the variant G314H, the cAMP reporter score is 0.669 in data set [1] (pH 5.5); -0.525 in data set [1] (pH 6); 0.953 in data set [1] (pH 6, modulator: ogerin); 0.009 in data set [1] (pH 6.5, modulator: ogerin). For the same variant, the surface expression score in data set [2] is 1.45.

As to G314R, the cAMP reporter score in data set [1] (pH 5.5) was 0.107; in data set [1] (pH 6, modulator: ogerin), 0.77; in data set [1] (pH 6.5, modulator: ogerin), -0.18. Also, the surface expression score in data set [2] was determined as 0.794.

Take G314V: the cAMP reporter score in data set [1] (pH 5.5) was 0.378; in data set [1] (pH 6) it was -0.882; in data set [1] (pH 6, modulator: ogerin), 0.231; in data set [1] (pH 6.5, modulator: ogerin) it was -0.153. Also, the surface expression score in data set [2] was determined as 0.283.

Take G314Y: the cAMP reporter score in data set [1] (pH 5.5) was 0.711; in data set [1] (pH 6) it was 0.413; in data set [1] (pH 6, modulator: ogerin), 0.848; in data set [1] (pH 6.5, modulator: ogerin) it was 0.173. Moreover, the surface expression score in data set [2] is 0.148.

For the variant G314F, the cAMP reporter score was 0.438 in data set [1] (pH 5.5); -0.209 in data set [1] (pH 6); 0.476 in data set [1] (pH 6, modulator: ogerin); -0.022 in data set [1] (pH 6.5, modulator: ogerin). Besides, in data set [2], the surface expression score was -0.383.

For G314L, the cAMP reporter score in data set [1] (pH 5.5) was 0.362; in data set [1] (pH 6), -0.522; in data set [1] (pH 6, modulator: ogerin), 1.2; in data set [1] (pH 6.5, modulator: ogerin), -0.493. The surface expression score in data set [2] was -1.78.

With G314E, the cAMP reporter score in data set [1] (pH 5.5) was found to be 0.84; in data set [1] (pH 6), 0.712; in data set [1] (pH 6, modulator: ogerin) it was 0.807; in data set [1] (pH 6.5, modulator: ogerin) it was 1.04. Moreover, the surface expression score in data set [2] came to 0.626.

For G314K, the cAMP reporter score was -0.692 in data set [1] (pH 5.5) and 0.635 in data set [1] (pH 6.5, modulator: ogerin). Moreover, in data set [2], the surface expression score is 0.859.

Take G314N: the cAMP reporter score in data set [1] (pH 5.5) was -0.485; in data set [1] (pH 6), -0.906; in data set [1] (pH 6, modulator: ogerin), 0.027; in data set [1] (pH 6.5, modulator: ogerin), -0.253. Besides, the surface expression score in data set [2] was determined as 0.568.

G314S: the cAMP reporter score in data set [1] (pH 5.5) was -0.059; in data set [1] (pH 6) it was 0.501; in data set [1] (pH 6, modulator: ogerin), 0.129; in data set [1] (pH 6.5, modulator: ogerin) it was 0.724. The surface expression score in data set [2] is 0.586.

Turning to G314Q, the cAMP reporter score in data set [1] (pH 5.5) is 0.632; in data set [1] (pH 6), 1.54; in data set [1] (pH 6, modulator: ogerin) it was 1.19; in data set [1] (pH 6.5, modulator: ogerin) it was -0.193. Moreover, the surface expression score in data set [2] was 0.154.

For G314T, the cAMP reporter score in data set [1] (pH 5.5) was 0.454; in data set [1] (pH 6), 0.931; in data set [1] (pH 6, modulator: ogerin), 0.22; in data set [1] (pH 6.5, modulator: ogerin), -0.258. The surface expression score in data set [2] was 0.064.

As to G314D, the cAMP reporter score was 0.278 in data set [1] (pH 5.5); 0.079 in data set [1] (pH 6); 0.121 in data set [1] (pH 6, modulator: ogerin); 0.407 in data set [1] (pH 6.5, modulator: ogerin). The surface expression score in data set [2] amounted to 0.908.

As to G314W, the cAMP reporter score in data set [1] (pH 5.5) was -0.072; in data set [1] (pH 6) it was -0.109; in data set [1] (pH 6, modulator: ogerin), 0.264; in data set [1] (pH 6.5, modulator: ogerin), 0.473. Also, the surface expression score in data set [2] is -0.048.

Turning to G314I, the cAMP reporter score came out at 0.191 in data set [1] (pH 5.5); 0.754 in data set [1] (pH 6); 0.932 in data set [1] (pH 6, modulator: ogerin); 0.442 in data set [1] (pH 6.5, modulator: ogerin). The surface expression score in data set [2] was found to be 0.635.

For the variant G314P, the cAMP reporter score in data set [1] (pH 5.5) turned out to be 0.272; in data set [1] (pH 6) it was 0.886; in data set [1] (pH 6, modulator: ogerin), 0.977; in data set [1] (pH 6.5, modulator: ogerin) it was 1.78. Further, the surface expression score in data set [2] stood at 1.34.

G314M: the cAMP reporter score is 0.347 in data set [1] (pH 5.5); -0.795 in data set [1] (pH 6); 0.695 in data set [1] (pH 6, modulator: ogerin); -0.611 in data set [1] (pH 6.5, modulator: ogerin). Further, in data set [2], the surface expression score is -0.062.

Consider G314C, for which the cAMP reporter score in data set [1] (pH 5.5) amounted to 0.957; in data set [1] (pH 6) it was 0.223; in data set [1] (pH 6, modulator: ogerin), 0.864; in data set [1] (pH 6.5, modulator: ogerin), 1.15. Further, in data set [2], the surface expression score amounted to 0.521.

With G314A, the cAMP reporter score is 0.898 in data set [1] (pH 5.5); -0.03 in data set [1] (pH 6); 0.856 in data set [1] (pH 6, modulator: ogerin); 0.208 in data set [1] (pH 6.5, modulator: ogerin). For the same variant, in data set [2], the surface expression score is 0.31.

For the variant C310_S311del, the cAMP reporter score was determined as 0.399 in data set [1] (pH 5.5); 1.21 in data set [1] (pH 6, modulator: ogerin); 2.27 in data set [1] (pH 6.5, modulator: ogerin). The surface expression score in data set [2] is 0.546.

For the variant C310_S311insGS, the cAMP reporter score in data set [1] (pH 5.5) is -0.64; in data set [1] (pH 6), -0.554; in data set [1] (pH 6, modulator: ogerin), 0.318; in data set [1] (pH 6.5, modulator: ogerin), 0.415. The surface expression score in data set [2] was 0.716.

Turning to R315_A316insGSG, the cAMP reporter score in data set [1] (pH 5.5) came to 0.668; in data set [1] (pH 6), 0.118; in data set [1] (pH 6, modulator: ogerin), 0.6; in data set [1] (pH 6.5, modulator: ogerin), 1.39. Further, in data set [2], the surface expression score worked out at 1.01.

In the case of E318_A319insGSG, the cAMP reporter score is 1.36 in data set [1] (pH 5.5); 1.19 in data set [1] (pH 6); 1.17 in data set [1] (pH 6, modulator: ogerin); 1.81 in data set [1] (pH 6.5, modulator: ogerin). Further, the surface expression score in data set [2] turned out to be 1.11.

In the case of R317A, the cAMP reporter score was 0.784 in data set [1] (pH 5.5); 2.83 in data set [1] (pH 6); 2.04 in data set [1] (pH 6.5, modulator: ogerin). Also, the surface expression score in data set [2] was 1.12.

In the case of R317L, the cAMP reporter score in data set [1] (pH 5.5) is 1.15; in data set [1] (pH 6), -0.36; in data set [1] (pH 6, modulator: ogerin), 1.42; in data set [1] (pH 6.5, modulator: ogerin) it was 0.743. The surface expression score in data set [2] turned out to be 0.81.

As to R317G, the cAMP reporter score is 0.311 in data set [1] (pH 5.5); -0.638 in data set [1] (pH 6); 0.153 in data set [1] (pH 6, modulator: ogerin); -0.274 in data set [1] (pH 6.5, modulator: ogerin). Also, the surface expression score in data set [2] worked out at 0.381.

As to R317F, the cAMP reporter score in data set [1] (pH 5.5) is 0.925; in data set [1] (pH 6, modulator: ogerin), -0.392. For the same variant, the surface expression score in data set [2] was -1.28.
